Among all 360,000 compounds or so, about 16,000 (4.4%) were called active. This list was built around the results that the source calls inconclusive (neither active nor inactive); the mix of calls is not that of the screen. The call rests on the fitted dose curve; in most records, active means well fitted inhibition curve with a large enough effect; inconclusive means small, poorly fitted or top-dose-only effect; inactive means no such curve, though single readings can be large or run the other way. Potencies beside an inconclusive call are fits to weak or partial responses and may not hold up.
The compounds below were run against Bromodomain adjacent to zinc finger domain protein 2B (Homo sapiens) (UniProt Q9UIF8) (assay: qHTS Assay for Inhibitors of BAZ2B). Settings: AlphaScreen BAZ2B-H3K14Ac peptide displacement; activity change, negative = inhibition: at 114 µM (top of the series).
Sequence of UniProt Q9UIF8 (Q9UIF8 whole entry, looked up, the tested form may be a part): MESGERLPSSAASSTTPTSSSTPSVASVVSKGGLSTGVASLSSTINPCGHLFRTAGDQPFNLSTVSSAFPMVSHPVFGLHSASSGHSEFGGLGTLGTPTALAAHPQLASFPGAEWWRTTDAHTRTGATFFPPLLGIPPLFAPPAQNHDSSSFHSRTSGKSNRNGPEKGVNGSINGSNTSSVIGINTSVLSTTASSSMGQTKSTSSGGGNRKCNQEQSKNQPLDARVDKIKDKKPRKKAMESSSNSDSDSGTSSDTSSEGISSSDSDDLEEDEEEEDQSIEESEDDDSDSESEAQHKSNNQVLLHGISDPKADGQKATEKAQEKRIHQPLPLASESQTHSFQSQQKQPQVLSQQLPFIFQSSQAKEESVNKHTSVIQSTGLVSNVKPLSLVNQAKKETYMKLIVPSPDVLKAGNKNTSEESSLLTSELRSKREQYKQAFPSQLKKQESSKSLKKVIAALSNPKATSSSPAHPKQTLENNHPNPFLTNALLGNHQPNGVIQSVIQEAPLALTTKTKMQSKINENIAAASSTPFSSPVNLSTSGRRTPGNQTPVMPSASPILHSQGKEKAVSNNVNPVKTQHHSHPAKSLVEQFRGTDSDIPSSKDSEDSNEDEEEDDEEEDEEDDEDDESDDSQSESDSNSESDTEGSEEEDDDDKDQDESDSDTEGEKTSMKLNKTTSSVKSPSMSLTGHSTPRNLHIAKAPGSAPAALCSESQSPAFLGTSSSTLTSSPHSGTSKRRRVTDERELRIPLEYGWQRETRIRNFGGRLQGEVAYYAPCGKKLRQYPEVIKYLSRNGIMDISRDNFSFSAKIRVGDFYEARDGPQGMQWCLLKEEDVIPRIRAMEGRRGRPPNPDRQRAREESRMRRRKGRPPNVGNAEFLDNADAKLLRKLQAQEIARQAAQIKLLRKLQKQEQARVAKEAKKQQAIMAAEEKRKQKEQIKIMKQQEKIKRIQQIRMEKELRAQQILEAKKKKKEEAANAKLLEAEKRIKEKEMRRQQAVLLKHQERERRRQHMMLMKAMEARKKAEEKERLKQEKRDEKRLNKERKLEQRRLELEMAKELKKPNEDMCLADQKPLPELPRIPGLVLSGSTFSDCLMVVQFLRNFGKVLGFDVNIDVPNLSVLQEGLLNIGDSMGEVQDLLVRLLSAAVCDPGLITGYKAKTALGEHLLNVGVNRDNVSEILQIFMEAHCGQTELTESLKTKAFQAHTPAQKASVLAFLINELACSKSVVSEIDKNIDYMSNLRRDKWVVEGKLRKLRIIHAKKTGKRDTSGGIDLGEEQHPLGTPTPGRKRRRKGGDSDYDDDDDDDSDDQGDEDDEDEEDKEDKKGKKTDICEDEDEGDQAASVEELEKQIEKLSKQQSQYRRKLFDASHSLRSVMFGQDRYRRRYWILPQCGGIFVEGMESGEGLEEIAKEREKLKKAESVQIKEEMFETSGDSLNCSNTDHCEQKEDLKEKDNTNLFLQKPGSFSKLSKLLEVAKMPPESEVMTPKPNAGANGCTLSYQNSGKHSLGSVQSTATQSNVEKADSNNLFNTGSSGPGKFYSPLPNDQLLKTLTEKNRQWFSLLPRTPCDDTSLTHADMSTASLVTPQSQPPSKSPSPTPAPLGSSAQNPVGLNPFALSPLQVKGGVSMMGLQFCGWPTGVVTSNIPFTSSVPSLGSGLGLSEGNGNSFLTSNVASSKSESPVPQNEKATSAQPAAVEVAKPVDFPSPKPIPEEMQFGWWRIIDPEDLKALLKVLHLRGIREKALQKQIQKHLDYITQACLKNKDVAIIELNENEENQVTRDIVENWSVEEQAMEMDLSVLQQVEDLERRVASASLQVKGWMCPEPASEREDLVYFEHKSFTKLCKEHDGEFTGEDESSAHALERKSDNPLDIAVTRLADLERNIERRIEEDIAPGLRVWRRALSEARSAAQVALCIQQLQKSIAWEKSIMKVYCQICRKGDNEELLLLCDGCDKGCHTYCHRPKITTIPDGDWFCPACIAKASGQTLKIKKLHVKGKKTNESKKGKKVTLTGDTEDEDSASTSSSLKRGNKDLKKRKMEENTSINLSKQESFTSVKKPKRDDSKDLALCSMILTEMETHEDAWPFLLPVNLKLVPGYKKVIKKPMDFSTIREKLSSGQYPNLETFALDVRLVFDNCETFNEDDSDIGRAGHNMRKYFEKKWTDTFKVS
How it was run: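 Compounds, titrated to a top concentration of 110 uM, were incubated 30 min at room temperature with preformed BAZ2B/acetyl-K14 H3 peptide complex (50 nM each). Proximity signal was measured by AlphaScreen after 20 min with beads.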
Further: nearly all actives have a fitted effect of over 60% in size.
On the % scale 0 is the no-effect control and ±100 the full control effect; potency means the concentration at half of the fitted maximal effect; tags describe the fitted curve by direction and shape.

Compound | Potency | activity change, negative = inhibition
CCOC(=O)C1=C(N)Oc2cc(O)ccc2C1c1cccc([N+](=O)[O-])c1 (stereo unspecified) | active: 39.8 µM | –
CCN1CCN(C(=O)Cn2ncc3c4ccccc4n(Cc4c(C)cc(C)cc4C)c3c2=O)CC1 | inconclusive: 22.4 µM [inhibitor, full curve] | –
O=C(O)c1ccc(OCCN2CCCC2=O)cc1 | inconclusive: 79.4 µM [inhibitor, single point] | –
Cn1cc(SCC(N)=O)c2ccccc21 | inactive | –
Cc1c(/C=C(\CC(=O)O)c2nc3ccccc3s2)cc(C#N)n1C | inactive | –
Cc1cccc(C#N)c1NC1=CC(=O)CC(C)(C)C1 | – | inconclusive: -62.1% [inhibitor]
CN(CC(=O)Nc1ccccc1Cl)C(=O)COC(=O)c1cc(S(=O)(=O)N(C)C)ccc1N1CCCC1 | inactive | –
CN1CCS/C1=C/C=C1/SC(=S)N(Cc2ccccc2)C1=O | active: 10 µM | –
COC(=O)CN1C(C(=O)c2ccccc2)=C(OC(=O)c2ccccc2)c2ccccc2S1(=O)=O | inconclusive: 7.94 µM [inhibitor, full curve, poor fit] | –
CCCN1C(C(=O)c2ccccc2)=C(OC(=O)COc2ccc(C)cc2)c2ccccc2S1(=O)=O | inconclusive: 63.1 µM [inhibitor, partial curve, poor fit] | –
CCOC(=O)c1c(C)[nH]c(-c2csc(C)n2)c1C | inconclusive: 56.2 µM [inhibitor, partial curve] | –
CCc1ccc(C(=O)NC(C(=O)NCC2CCCO2)C(C)C)cc1 (stereo unspecified) | inactive | –
Cc1ccccc1OCC(=O)OCC(=O)Nc1ccc(N2CCOCC2)cc1 | inconclusive: 89.1 µM [inhibitor, single point] | –
CN(C)c1ccc(CNCCC(Cc2ccccc2)c2ccco2)cc1 (stereo unspecified) | active: 22.4 µM | –
Cc1cc(NS(=O)(=O)c2ccc(NC(=O)COc3cc(C)c(Br)cc3C(C)C)cc2)no1 | inactive | –
O=C(Nc1ccc2oc(-c3cccnc3)nc2c1)c1ccco1 | inactive | –
COc1ccc(/C=C2\SC(=Nc3ccccc3OC)NC2=O)cc1 | inconclusive: 28.2 µM [inhibitor, partial curve] | –
O=C(O)C(Cc1c[nH]c2ccccc12)NS(=O)(=O)c1ccc2ccccc2c1 (stereo unspecified) | inactive | –
Cc1ccc(CN(C(=O)COc2ccc(F)cc2)C2CCS(=O)(=O)C2)o1 (stereo unspecified) | inactive | –
CSc1nnc(-c2ccccc2N=Cc2c(C)[nH]n(-c3ccccc3)c2=O)c(=O)[nH]1 | inconclusive: 89.1 µM [inhibitor, single point] | –
O=C(NCC(c1cccnc1)N1CCc2ccccc21)c1ccc(Cl)cc1 (stereo unspecified) | inactive | –
